Source: ChEMBL document CHEMBL4888484, “Replenishing the malaria drug discovery pipeline: Screening and hit evaluation of the MMV Hit Generation Library 1 (HGL1) against asexual blood stage Plasmodium falciparum ,using a nano luciferase reporter read-out” (2022)
The whole screen tested about 150,000 compounds, of which about 540 (0.36%) showed an effect of 50% or more. The list shows a part of the results.

These molecules were tested on Plasmodium falciparum (assay: Primary screen in NF54 nanoGlo assay, in single point, at 2uM, 72h; a lower Z score goes with more inhibition). Settings: timepoint 72 hour.
Type: functional, Erythrocyte
For Cc1ccc(-c2cc3c4nn(CC(=O)Nc5cccc(C)c5)c(=O)n4ccn3n2)cc1, the “% Inhibition” value was 3% and the Z score was -0.39. For Cc1ccc(CNC(=O)c2cnc3c(c(C)nn3-c3ccccc3)c2O)cc1, the “% Inhibition” value was -17% and the Z score was 2.24. With CCn1nccc1CNc1cc(Br)c(OC)cc1OC the “% Inhibition” value was 3% and the Z score was -0.37. With C[C@H]1C[C@]1(C)S(=O)(=O)NCCc1cn2c(n1)CCCC2 the “% Inhibition” value was -1% and the Z score was 0.2. For C=C(C)CC(C)C(=O)NC(CO)C(O)C1CCCCC1 (stereo not drawn), the “% Inhibition” value was 4% and the Z score was -0.6. For Cc1ccncc1C(=O)N1CCC[C@H](c2nnc3n2CCN(C2CCCC2)C3)C1, the “% Inhibition” value was -20% and the Z score was 3.88. With Cc1ccc(-n2cnnc2)c(C(=O)N2CC3CCCC(C3)C2)c1 the “% Inhibition” value was -4% and the Z score was 0.73. In the case of Cn1cc(S(=O)(=O)N2CCCN(C(=O)CCS(=O)(=O)c3ccccc3)CC2)cn1, the “% Inhibition” value is reported as -3% and the Z score is reported as 0.47. CCc1ncc2c(n1)CN(C(=O)c1snnc1CC)C2 was tested, and the “% Inhibition” value was -7% and the Z score was 1.42. In the case of O=C(NC1CCOc2ccccc21)C1CCCO1 (stereo not drawn), the “% Inhibition” value is reported as -3% and the Z score is reported as 0.47. With O=C(c1c2c(nc3ccccc13)CCCC2)N1CCOCC1 the “% Inhibition” value was -13% and the Z score was 1.58. For CC(C)(C)C1CCN(c2ncnc(Oc3ccccc3F)c2N)CC1, the “% Inhibition” value was -7% and the Z score was 1.12. In the case of COc1ccc(CN2CNc3nc(C)c(C)c(=O)n3C2)cc1, the “% Inhibition” value is reported as -8% and the Z score is reported as 1.1. In the case of O[C@@H](COc1ccc2cncnc2c1)C(F)(F)F, the “% Inhibition” value is reported as -6% and the Z score is reported as 0.91. For CS(=O)(=O)N1CCC[C@H](C(=O)N2CCN(c3ccc(F)cc3)CC2)CCNC(=O)CC1, the “% Inhibition” value was 10% and the Z score was -1.29. With CC(Oc1ccccc1)C(=O)N1C2CCC1CC(n1ccnn1)C2 (stereo not drawn) the “% Inhibition” value was -3% and the Z score was 0.44. With COCCNC(=O)[C@H](CC(C)C)Nc1ncccn1 the “% Inhibition” value was -10% and the Z score was 1.03. With O=C(Nc1nc2c(s1)CCCC2)C(c1ccccc1)c1ccccc1 the “% Inhibition” value was -29% and the Z score was 2.53. With COc1ccc(CN2CCN(S(=O)(=O)c3cccnc3)CC2)cn1 the “% Inhibition” value was -2% and the Z score was 0.26. In the case of OC(CN1CCCC(N2CCCCC2)C1)c1ccc(F)c(F)c1 (stereo not drawn), the “% Inhibition” value is reported as -6% and the Z score is reported as 0.52. In the case of CCc1nnc(-c2cc(S(=O)(=O)NCc3ccc(C)o3)c[nH]2)o1, the “% Inhibition” value is reported as -6% and the Z score is reported as 1.12. With Cc1nc(-c2cnn(C)c2)sc1C(=O)N(CCC(C)C)CCC(C)C the “% Inhibition” value was 0% and the Z score was 0.02. CC1(C)C[C@]2(NC(=O)N(Cc3c(Cl)oc4ccccc34)C2=O)C(C)(C)O1 was tested, and the “% Inhibition” value was -6% and the Z score was 1.08. O=C(Nc1cc(Cl)ccc1Cl)[C@@H]1CCCN1C(=O)c1ccoc1 was tested, and the “% Inhibition” value was 21% and the Z score was -2.66. In the case of CCCn1ccnc1[C@@H]1c2nc[nH]c2CCN1Cc1cccnc1N, the “% Inhibition” value is reported as -13% and the Z score is reported as 1.35. CCOCc1nc([C@@H]2CCCN2S(=O)(=O)c2cccc(F)c2)no1 was tested, and the “% Inhibition” value was -10% and the Z score was 1.27. For Cc1cc2c(cc1S(=O)(=O)NC1CCCC(C)C1C)OCC(=O)N2 (stereo not drawn), the “% Inhibition” value was -10% and the Z score was 1.61. In the case of CC1CCN(Cc2ccc(CNCc3c[nH]nc3-c3ccc(F)cc3)cc2)CC1, the “% Inhibition” value is reported as 37% and the Z score is reported as -4.62. In the case of C=C(C)COc1ccc(CN2CCCNC(=O)C2)cc1OCC, the “% Inhibition” value is reported as -13% and the Z score is reported as 1.17. For c1cn(CCCOc2ccc(CN3CCc4n[nH]cc4C3)cc2)cn1, the “% Inhibition” value was -10% and the Z score was 1.29. For COc1ccc(N2C(=O)c3ccccc3N[C@]23C(=O)N(Cc2ccccc2F)c2ccccc23)cc1, the “% Inhibition” value was 1% and the Z score was -0.1. For FC(F)[C@@H]1Oc2ccccc2C[C@H]1c1nc(-c2cn[nH]c2)no1, the “% Inhibition” value was -3% and the Z score was 0.65. For CC(=O)N[C@H]1C[C@@H](c2cc(NCc3ccsc3)nc(C)n2)C1, the “% Inhibition” value was 5% and the Z score was -0.66. For CC(=O)N1CCC[C@H]1C(=O)N1CCc2ccccc2C1, the “% Inhibition” value was -6% and the Z score was 0.7. CCc1cnc(C)nc1NC[C@H]1CN(CC2CCN(CC3CC3)CC2)C(=O)CO1 was tested, and the “% Inhibition” value was 5% and the Z score was -0.67. With O=C(c1cc2ccccn2c1)N1CC[C@H](Oc2ncccn2)C1 the “% Inhibition” value was -4% and the Z score was 0.67. Cc1ccc(-c2cc3c(cc2OC(C)(C)C(=O)O)OCC3)cc1C#N was tested, and the “% Inhibition” value was 1% and the Z score was -0.17. In the case of CC#CCN(C)C(=O)[C@H]1CCCC(F)(F)C1, the “% Inhibition” value is reported as -8% and the Z score is reported as 0.85. With c1ccc(-c2nc(C[C@H]3CCCNC3)no2)cc1 the “% Inhibition” value was -17% and the Z score was 2.61. With CC[C@]1(O)CCN(c2cccnc2C#N)C1 the “% Inhibition” value was 1% and the Z score was -0.17. For CC1CCN(C[C@H]2CCCN(C(=O)Nc3ccccc3F)CC2)CC1, the “% Inhibition” value was 1% and the Z score was -0.14. With COCCN(CCOC)C(=O)NCc1cccc(Cl)c1Cl the “% Inhibition” value was 11% and the Z score was -1.94. In the case of CCS(=O)(=O)N1C[C@@H]2CN(Cc3ccc(F)c(F)c3)C[C@]2(c2nc(C)no2)C1, the “% Inhibition” value is reported as -12% and the Z score is reported as 1.65. In the case of c1ccc2c(CCCc3nc4nccc(-c5ccc6c(c5)OCCCO6)n4n3)c[nH]c2c1, the “% Inhibition” value is reported as -6% and the Z score is reported as 0.76. With Cc1cc(C2(NC(=O)Nc3cc(C4(C)CCCC4)on3)CCOCC2)on1 the “% Inhibition” value was -14% and the Z score was 2.48. CC(C)c1nc(CCCN(C)C)n(-c2cccc(Cl)c2)n1 was tested, and the “% Inhibition” value was -7% and the Z score was 1.05. In the case of C[C@@H](CN(C)c1cc(-n2cccn2)nc(N)n1)C(=O)O, the “% Inhibition” value is reported as -9% and the Z score is reported as 1.74. For CCOc1ccccc1S(=O)(=O)N1C2C=CCC1CC2 (stereo not drawn), the “% Inhibition” value was 6% and the Z score was -1.08. For CC(C)(C)C1CNC(=O)C1C(=O)NCCc1ccc(Cl)cc1 (stereo not drawn), the “% Inhibition” value was -1% and the Z score was 0.09. With CCN(C)CC(=O)N1CCC2(CC1)CC(=O)N(Cc1cc(F)cc(F)c1)C2 the “% Inhibition” value was -14% and the Z score was 2.32. In the case of O=C(c1ccccc1Br)N1CCC(n2ccnn2)CC1, the “% Inhibition” value is reported as -6% and the Z score is reported as 1.16. O=S(=O)(c1ccc(/C=C/c2nc3ccccc3o2)cc1)N1CCOCC1 was tested, and the “% Inhibition” value was -31% and the Z score was 3.63. Cc1cccc(-c2nc(C[N+]3(Cc4nc(-c5cccc(C)c5)oc4C)CCCC3)c(C)o2)c1 was tested, and the “% Inhibition” value was 29% and the Z score was -6.09. With Nc1nccnc1C(=O)NC[C@@H](c1ccco1)N1CCCC1 the “% Inhibition” value was -3% and the Z score was 0.44.
